# Measured values published in PubChem BioAssay AID1347165 (National Center for Advancing Translational Sciences (NCATS), 2019).
# The whole screen tested about 220,000 compounds, of which about 5,700 (2.6%) were called active. The shares of active, inactive and inconclusive entries below differ from those in the screen. Calls come from the whole dose curve; as a rule, active = well fitted inhibition curve with a large enough effect; inconclusive = small, poorly fitted or top-dose-only effect; inactive = no such curve, though single readings can be large or run the other way. Potencies beside an inconclusive call are fits to weak or partial responses and may not hold up.
# Target: Lysine-specific demethylase 5B (Homo sapiens) (UniProt Q9UGL1)
# Assay: Primary screen for KDM5B Histone Demethylases FDH-coupled qHTS; note: nearly all actives have a fitted effect of over 70% in size; for activity change, negative = inhibition: 0% is about no effect
# Conditions: FDH-coupled NADH fluorescence (FDH is formaldehyde dehydrogenase); activity change, negative = inhibition: at 57.7 µM (top of the series) unless noted
# Outline: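 Here, H3K4me3 peptide (12.5 µM in substrate mix) is demethylated by KDM5BΔAP, 200 nM final, after 10 min compound exposure. Formaldehyde product is coupled through FDH (0.25 U/mL in mix) to NADH fluorescence; 30-min ΔRFU feeds dose-response curves.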
# Potency is the fitted concentration of half-maximal effect; tags give direction and shape of the fitted curve.
# Sequence of UniProt Q9UGL1 (Q9UGL1 whole entry, looked up): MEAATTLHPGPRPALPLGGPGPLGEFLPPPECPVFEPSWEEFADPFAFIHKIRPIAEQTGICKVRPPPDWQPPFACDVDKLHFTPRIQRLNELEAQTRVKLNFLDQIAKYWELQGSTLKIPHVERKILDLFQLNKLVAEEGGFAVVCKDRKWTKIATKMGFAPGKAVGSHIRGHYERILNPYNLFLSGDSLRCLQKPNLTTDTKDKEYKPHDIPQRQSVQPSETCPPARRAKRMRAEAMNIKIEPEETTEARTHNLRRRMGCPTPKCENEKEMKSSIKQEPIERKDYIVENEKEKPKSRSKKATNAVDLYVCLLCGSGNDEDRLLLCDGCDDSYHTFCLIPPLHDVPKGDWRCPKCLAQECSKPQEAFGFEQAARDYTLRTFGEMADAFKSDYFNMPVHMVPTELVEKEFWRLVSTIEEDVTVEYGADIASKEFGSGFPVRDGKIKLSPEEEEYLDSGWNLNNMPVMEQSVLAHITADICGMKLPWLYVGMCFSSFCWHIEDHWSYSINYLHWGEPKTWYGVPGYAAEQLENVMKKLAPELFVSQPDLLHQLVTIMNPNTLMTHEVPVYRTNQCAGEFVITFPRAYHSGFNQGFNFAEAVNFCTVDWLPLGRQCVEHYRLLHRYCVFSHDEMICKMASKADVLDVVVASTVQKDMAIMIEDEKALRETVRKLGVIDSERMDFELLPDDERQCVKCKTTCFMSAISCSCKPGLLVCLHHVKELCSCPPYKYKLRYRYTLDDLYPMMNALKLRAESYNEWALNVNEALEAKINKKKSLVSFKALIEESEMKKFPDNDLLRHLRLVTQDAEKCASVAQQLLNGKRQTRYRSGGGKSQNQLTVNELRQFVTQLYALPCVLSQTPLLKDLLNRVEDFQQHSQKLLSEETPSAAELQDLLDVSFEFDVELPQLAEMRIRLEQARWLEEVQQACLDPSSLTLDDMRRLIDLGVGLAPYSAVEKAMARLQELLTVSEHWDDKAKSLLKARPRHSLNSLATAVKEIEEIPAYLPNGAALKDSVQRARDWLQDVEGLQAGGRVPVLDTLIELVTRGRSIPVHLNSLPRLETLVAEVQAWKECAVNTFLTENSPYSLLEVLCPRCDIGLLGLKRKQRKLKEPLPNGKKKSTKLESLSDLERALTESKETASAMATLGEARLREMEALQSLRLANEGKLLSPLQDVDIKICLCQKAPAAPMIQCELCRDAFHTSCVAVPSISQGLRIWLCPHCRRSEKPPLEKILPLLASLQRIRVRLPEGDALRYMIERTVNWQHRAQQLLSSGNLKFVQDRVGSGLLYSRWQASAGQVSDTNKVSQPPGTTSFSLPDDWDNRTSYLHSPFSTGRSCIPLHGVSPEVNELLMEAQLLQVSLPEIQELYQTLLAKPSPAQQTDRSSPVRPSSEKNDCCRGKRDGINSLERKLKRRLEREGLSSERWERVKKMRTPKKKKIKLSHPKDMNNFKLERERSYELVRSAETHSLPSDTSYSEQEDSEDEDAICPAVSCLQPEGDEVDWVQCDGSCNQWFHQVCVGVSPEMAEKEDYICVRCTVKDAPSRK
Structure (SMILES),Potency,"activity change, negative = inhibition"
COC(=O)c1ccc(COC(=O)c2cccc3ccccc23)cc1,"inconclusive: 39.8 µM [inhibitor, single point]",–
O=C(NNC(=S)Nc1ccccc1)c1ccccc1Br,"inconclusive: 22.4 µM [inhibitor, partial curve, poor fit]",–
CCCOc1ccc(CNc2ccc(Oc3ccccc3)cc2)cc1,"inconclusive: 28.2 µM [inhibitor, single point]",–
COc1ccc(-c2cc(C(F)(F)F)n3nc(C(=O)Nc4cc(C)ccc4C)cc3n2)cc1,"inconclusive: 31.6 µM [inhibitor, single point]",–
COCCN1C(=O)C(=O)/C(=C(/O)c2ccc(OC(C)C)c(C)c2)C1c1ccc(Br)cc1 (centres undefined),–,inactive: 3.65%
CC(C)[C@H](NC(=O)[C@H](C(C)C)n1nnc2ccccc2c1=O)C(=O)O,–,inactive: 12.4%
COc1cccc(CN2C[C@@H]3C(C(=O)O)[C@@H]3C2)c1OCCn1ccnc1 (some centres undefined),"inconclusive: 11.2 µM [inhibitor, partial curve, poor fit]",–
CCn1nc(C)c2c(-c3ccccc3)cc(=O)n(C(C)C(=O)NCCc3ccc(Cl)cc3)c21 (centres undefined),"inconclusive: 35.5 µM [inhibitor, partial curve, poor fit]",–
CSC(=S)NN=C1CCCC1,–,inactive: -1.34%
COc1cc(C(=O)OCc2ccccc2C#N)ccc1C,–,inactive: 8.9%
COCCC1(NS(C)(=O)=O)CCN(C(=O)c2ocnc2C)CC1,–,inactive: 21%
c1csc(CNCCCn2ccnc2)c1,–,inactive: 17.8%
O=C(c1ccc2c(c1)OCO2)N1CCC(N2CC3CC(C2)[C@H]2CCCC(=O)N2C3)CC1 (some centres undefined),"inconclusive: 14.1 µM [inhibitor, partial curve, poor fit]",–
COCc1cc(=O)oc2cc(NS(=O)(=O)c3ccc(C)cc3)ccc12,"inconclusive: 2 µM [inhibitor, partial curve, poor fit]",–
Cc1ccc(C(=O)N2CCN(c3cc(-c4cccs4)[nH]n3)CC2)cc1C,–,inactive: -15.9%
Cn1ncc2c(C(=O)NC3CC3)cc(-c3cccc(C(F)(F)F)c3)nc21,"inconclusive: 50.1 µM [inhibitor, partial curve, poor fit]",–
FC(F)(F)C1CN(c2ccc3cc(Cl)ccc3n2)CCO1 (centres undefined),active: 14.1 µM,–
Oc1ccc(-c2nc(C3CC3)nc3c2CN(Cc2ccccc2C(F)(F)F)CC3)cc1,"inconclusive: 31.6 µM [inhibitor, partial curve]",–
CC1(COCC2CC2)COc2ccc(C(=O)Nc3cccnc3)cc2N1 (centres undefined),"inconclusive: 35.5 µM [inhibitor, single point]",–
Nc1ccc(Oc2ncccn2)cc1,"inconclusive: 28.2 µM [inhibitor, partial curve, poor fit]",–
O=C(NCc1ccccn1)Nc1ccc(N2CCOCC2)nc1,"inconclusive: 28.2 µM [inhibitor, partial curve, poor fit]",–
CCCC(=O)N1CCC2(CC1)NCCc1c2[nH]c2ccccc12,"inconclusive: 39.8 µM [inhibitor, partial curve, poor fit]",–
CN(C(=O)c1ccnc(-c2nnc3ccc(N4CCOCC4)nn23)c1)c1ccccc1,"inconclusive: 44.7 µM [inhibitor, partial curve, poor fit]",–

Structure (SMILES),Potency,"activity change, negative = inhibition"
O=C(Cn1cc(Br)c(=O)[nH]c1=O)N1CCC2(CC1)OCCO2,–,inactive: 9.68%
c1ccc(Cc2nnc([C@H]3CCN(C4CCCCC4)C3)o2)cc1,"inconclusive: 8.91 µM [inhibitor, partial curve]",–
Cc1ccc(C(=O)N2CCCn3cc(-c4ccccc4)nc32)cn1,"inconclusive: 28.2 µM [inhibitor, partial curve, poor fit]",–
Fc1ccc(/C=N/Nc2ccc(Cl)c(Cl)c2)cc1F,–,inactive: -18.6%
COc1ccc(CNC(=O)CN2C(=O)CCn3nc(-c4cn(C)c5ccccc45)cc32)cc1,"inconclusive: 35.5 µM [inhibitor, single point]",–
COC(=O)[C@@H]1Cc2ncn(Cc3ccc(Cl)cc3)c2CN1C(=O)c1cccs1,"inconclusive: 28.2 µM [inhibitor, partial curve, poor fit]",–
CCOC(=O)c1c(C)[nH]c(CCC(=O)NCc2cc(OC)c(OC)c(OC)c2)c1C,"inconclusive: 31.6 µM [inhibitor, single point]",–
O=C(CCc1c[nH]c2ccccc12)N1CCCCCC1,–,inactive: 7.78%
O=C(COc1ccc2c(=O)c(-c3ccc(Cl)cc3)coc2c1)Nc1ccc2c(c1)OCCO2,–,inactive: 6.75%
Oc1c(C(c2ccccc2)N2CCCC2)sc2nc(-c3ccco3)nn12 (centres undefined),–,inactive: -28.1%
CCn1cc(S(=O)(=O)N2CC(N(Cc3cccnc3)CC(C)C)C2)cn1,–,inactive: -5.76%
Cc1nnnn1CCCN1CC[C@H]2NCCC[C@]2(C(=O)O)C1,"inconclusive: 20 µM [inhibitor, partial curve]",–
COc1ccc(Cl)cc1C(=O)NC1CCN(c2cc(-c3cccs3)[nH]n2)C1 (centres undefined),"inconclusive: 14.1 µM [inhibitor, partial curve, poor fit]",–
O=C(CN1CCCCCC1)NCC1Cn2cccc2C(=O)N1Cc1ccccc1 (centres undefined),–,inactive: -26.5%
O=C(Nc1ccc(Br)cc1)c1cc(S(=O)(=O)NC2CCCC2)ccc1F,–,inactive: -22.9%
Cc1ccc(-n2ncc3c(NCC4CCCO4)ncnc32)cc1C (centres undefined),"inconclusive: 28.2 µM [inhibitor, partial curve, poor fit]",–
Cc1ccc2c(C)c(C(=O)N(Cc3ccc(N(C)C)cc3)Cc3ccco3)oc2c1C,"inconclusive: 35.5 µM [inhibitor, partial curve, poor fit]",–
O=C(O)[C@H]1c2ccccc2C(=O)N(Cc2ccc(F)cc2)[C@H]1c1ccc(Cl)cc1,–,inactive: 16.3%
N#C/C(=C\c1c(OCc2ccccc2)ccc2ccccc12)c1nc2ccccc2[nH]1,–,inactive: -11.4%
Cc1nc(-c2cccc(NC(=O)c3ccc4[nH]c(C)c(C)c4c3)c2)cs1,–,inactive: -29.7%
CC(C)Oc1ccc(C(=O)NCC(c2ccc(N(C)C)cc2)N2CCc3ccccc32)cc1 (centres undefined),"inconclusive: 17.8 µM [inhibitor, partial curve, poor fit]",–
CC1CN(CCS(=O)c2ccccc2)CC(C)O1 (centres undefined),–,inactive: -0.0856%
COCCN1CCNc2cc(-c3cc(Cl)ccc3OC)ncc2C1,"inconclusive: 35.5 µM [inhibitor, single point]",–

Structure (SMILES),Potency,"activity change, negative = inhibition"
O=C1CN(C(=O)Cc2c[nH]c3ncc(-c4ccccc4)cc23)CCN1,active: 39.8 µM,–
CCOC(=O)c1ccccc1NC(=O)N1CCC(CN2CCOCC2)CC1,"inconclusive: 15.8 µM [inhibitor, partial curve, poor fit]",–
COc1ccccc1CNC(=O)c1ccc2nc(Cc3ccccc3F)oc2c1,–,inactive: -5.88%
CC(C)NC(=O)CCc1cc2n(n1)CCN(Cc1cc(=O)[nH]c(=O)[nH]1)C2,"inconclusive: 14.1 µM [inhibitor, partial curve, poor fit]",–
O=C(CC1CCCN(c2cn[nH]c(=O)c2)C1)NCCc1ccccc1 (centres undefined),–,inactive: 35.9%
CC(C)CN(CC1CN(C(=O)c2ccccc2)CCO1)C(=O)c1cccc2ccccc12 (centres undefined),"inconclusive: 22.4 µM [inhibitor, single point]",–
Cc1[nH]c(-c2ccccc2)nc1C(=O)N1CCCC[C@H](N(C)C)C1,–,inactive: 4.86%
COc1ccc2c(c1)OCC(C(=O)NCC1(c3ccccc3)CCOCC1)C2 (centres undefined),"inconclusive: 22.4 µM [inhibitor, partial curve, poor fit]",–
COc1ccc2c(=O)n(CC(=O)N3CCCC(C#N)C3)ccc2c1OC (centres undefined),"inconclusive: 15.8 µM [inhibitor, single point]",–
CC(=O)Nc1ccc(NC(=O)C(=O)N/N=C/c2cccnc2)cc1,"inconclusive: 25.1 µM [inhibitor, single point]",–
CN1CC(=O)N(C2CCNC2)Cc2c(NCc3cc(F)cc(F)c3)ncnc21 (centres undefined),"inconclusive: 56.2 µM [inhibitor, partial curve, poor fit]",–
CCc1ccc(NC(=O)Cn2c(=O)n(-c3ccccc3C)c(=O)c3c2c2cc(OC)ccc2n3C)cc1,"inconclusive: 15.8 µM [inhibitor, partial curve, poor fit]",–
O=C(c1csc(Nc2ccc(Cl)c(Cl)c2)n1)N1CCc2ccccc2C1,–,inactive: -18.2%
CC(C)(C)c1ccc(C(=O)NCCSc2c[nH]c3ccccc23)cc1,–,inactive: -9.87%
O=C1CO[C@H]2CN(Cc3ccc4c(c3)OCO4)C[C@H]2N1Cc1ccccn1,"inconclusive: 11.2 µM [inhibitor, partial curve, poor fit]",–
Cc1nc(-c2ccc(F)cc2)sc1CCNC(=O)c1cccs1,"inconclusive: 15.8 µM [inhibitor, partial curve, poor fit]",–
O=C(C1COc2ccccc2O1)N1CCN(Cc2cc(=O)oc3cc(O)ccc23)CC1 (centres undefined),"inconclusive: 5.01 µM [inhibitor, full curve, poor fit]",–
COc1ccc(COCC(O)CN2CCN(S(=O)(=O)c3ccc(C(C)C)cc3)CC2)cc1 (centres undefined),"inconclusive: 10 µM [inhibitor, partial curve, poor fit]",–
COc1ccc(-c2ccc(Cn3ccnc3)cn2)c2ccc(C)nc12,active: 25.1 µM,–
CCOC(=O)c1c(N)n(-c2ccc(CC)cc2)c2nc3ccccc3nc12,"inconclusive: 28.2 µM [inhibitor, partial curve, poor fit]",–
COc1cccc(Nc2nc(-c3c(C)noc3C)cc3cc(CN(C)C)oc23)c1,active: 35.5 µM,–
CN(C)[C@@H]1CN(C(=O)c2ccoc2)CC[C@@H]1CO,–,inactive: 5.74%
COc1ccc(S(=O)(=O)n2nc(C)c(S(=O)(=O)N3CCCCCC3)c2C)cc1C,"inconclusive: 35.5 µM [inhibitor, single point]",–
